From publication PMC6398391 (The FEBS journal, 2018) come the findings set out here.

This assay concerns the target c-MYC HLHZip (residues 368-437) (human, UniProt P01106-1 part only). Briefly: co-expression and co-purification (Ni affinity); MYC and MAX regions coexpressed in E. coli from a polycistronic mRNA; the dimer purified on a HisTRAP column at 25 °C. Particulars: partners not purified.

B1: MAX HLHZip ([…]) (domain or fragment)
chain: not shown
As for B1, the binding result is “binds”.
